Laboratory results reported in US9745340B2, “Method for the separation of proteins containing an albumin-binding” (AFFIBODY AB, priority 2012, dated 2017).

Tested on: PEP08517
Experiment: Column study I: spin columns, Z variant-coupled SulfoLink resins, pure sample
Type: binding
Protocol: 1 mg of each lyophilized ABD binding Z variant Z06608, Z06620, Z06638, Z06650, Z06677, Z06678 and Z06695, in the format His6-(Z#####)2-Cys produced as described in Example 2, was resuspended in a reducing buffer (50 mM Tris-HCl, 5 mM EDTA, 20 mM DTT, pH 8.5) and incubated at RT for 2 h. Reduced protein solutions were transferred to a coupling buffer (50 mM Tris-HCl, 5 mM EDTA, pH 8.5) including 50 mM DTT, using size exclusion chromatography, and then mixed with portions of 0.2 ml SulfoLink Coupling Resin (Thermo Fisher Scientific, cat. no. 20401). This procedure enables site-directed reaction between the thiol groups of the C-terminal cysteine residues of the ABD binding Z variants and the iodoacetyl groups of the resin, forming a covalent thioether bond. The coupling reaction was carried out according to the instructions by the manufacturer. The degree of coupling, defined as mg of coupled ABD binding Z variant per ml of resin, was determined as follows: The amount of coupled ABD binding Z variant was calculated by subtracting the amount of uncoupled material from the original amount of sample, based on concentrations obtained by spectrophotometric measurements of the absorbance at 280 nm. The amount of coupled ABD binding Z variant in mg was then divided with the volume of the SulfoLink Coupling Resin.
A first column study was performed to test binding, wash and elution properties of each of the seven ABD binding Z variants coupled to resin and by using a previously purified sample of the ABD fusion protein PEP08517. PEP08517 comprises the albumin binding domain PP013 (SEQ ID NO:160) fused at its N-terminus to a cytokine binding variant of protein Z. 0.1 ml portions of the resins were transferred to test tubes and 0.1 ml of a pure sample of PEP08517 at 2 mg/ml in coupling buffer was added. The tubes were incubated on a rotating wheel for 1 h at RT. Each sample-resin mix was transferred to an empty spin column. Unbound protein was collected by centrifugation (flow-through, FT). 0.1 ml of different solutions, specified in Table 1, were thereafter added to wash and subsequently elute bound PEP08517 molecules. Each wash and elution fraction was collected by centrifugation.
Collected fractions were analyzed in a spectrophotometer by measuring the absorbance at 280 nm.

B1: His6-(Z06677)2-Cys: dimeric Z06677 with N-terminal His6 tag and C-terminal Cys, MGSSHHHHHHLQ-[Z06677][Z06677]-VDC (protein)
chain: MGSSHHHHHHLQVDAKYAKELKVAFKEINTLPNLTHQQRIAFIIKLDDDPSQSSELLAEAKKLNDAQAPKVDAKYAKELKVAFKEINTLPNLTHQQRIAFIIKLDDDPSQSSELLAEAKKLNDAQAPKVDC
elution step releasing most of the sample (0.5 M HAc, pH 2.5, first (a) or second (b) addition): eluted the majority of the sample at the first pH 2.5 buffer addition | elution profile in column study I (SulfoLink resin, wash PBS/Tris, elution pH 4 and pH 2.5, A280): most favorable elution profile
